In PubChem BioAssay AID504706 (National Center for Advancing Translational Sciences (NCATS), 2011):
About 200 (0.062%) of roughly 320,000 compounds were called active. This list was built around the results that the source calls inconclusive (neither active nor inactive); the mix of calls is not that of the screen. Calls follow the shape of the dose curve; as a rule, active = well fitted activation curve with a large enough effect; inconclusive = small, poorly fitted or top-dose-only effect; inactive = no such curve, though single readings can be large or run the other way. No potency is given beside an inconclusive call; the fits are too rough.

Assay: qHTS assay for re-activators of p53 using a Luc reporter; also: nearly all actives have a fitted effect of over 45% in size
Details: H1299 p53-A138V BP100-luciferase reporter, luminescence, 24 h; series mostly up to 92.2 µM
How it was run: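 p53-null H1299 cells stably carrying temperature-sensitive p53-A138V and a BP100-luciferase reporter were pinned with compounds (4-point, 1:5 series) and held 24 hrs at 37 deg C. Luminescence was read 10 min after detection reagent.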
Potency is read from the fitted curve at half-maximal effect; tags tell the direction and shape of the fitted curve.

| Compound | Potency |
| --- | --- |
| CC(C)COC(=O)NCC12C=CC(O1)C1C(=O)N(c3ccc(Cl)cc3)C(=O)C12 (centres undefined) | inactive |
| O=C(Nc1nc2ccccc2[nH]1)C1CCCC1 | inactive |
| COc1ccc2oc(=O)c(C(=O)NCc3ccco3)cc2c1 | inconclusive [activator, partial curve, poor fit] |
| CCOC(=O)c1c[nH]c2c3c(ccc2c1=O)CCCC3 | inconclusive [activator, full curve, poor fit] |
| Clc1cccc(Cl)c1CSc1cc2c(nn1)-c1ccccc1CC2 | inconclusive [activator, single point] |
| CCCCS/C(=C(/C#N)C(N)=O)c1cc2c([nH]1)CCCC2 | inconclusive [activator, partial curve, poor fit] |
| CC(C)CCc1c(O)nc(SCC(=O)N2CCCCCC2)[nH]c1=O | inconclusive [activator, single point] |
| CCCN1CCc2c(sc(NC(=S)NC(=O)c3ccccc3)c2C#N)C1 | inconclusive [activator, partial curve, poor fit] |
| COC(=O)c1ccc2nc(NC(=O)CSCC(=O)OCC(=O)c3ccccc3)sc2c1 | inconclusive [activator, single point] |
| O=C(Cc1cccs1)Nc1ccc(F)c(F)c1 | inconclusive [activator, single point] |
| CCN1CCN(C(=O)c2cc(-c3ccco3)nc3ccccc23)CC1 | inconclusive [activator, partial curve, poor fit] |
| COc1ccc(/C(N)=N/OC(=O)Cc2cccs2)cc1OC | inconclusive [activator, partial curve, poor fit] |
| COc1ccc(NC(C)=O)cc1NC(C)C(=O)Nc1ccc(S(=O)(=O)N2CCCCC2)cc1 (centres undefined) | inactive |
| CC(C)c1ccc(C(=O)NC2=NCCS2)cc1 | inconclusive [activator, full curve, poor fit] |
| N/C(=N\OC(=O)CC1CCCCC1)c1ccc(Cl)cc1 | inconclusive [activator, single point] |
| COc1ccc(-n2c(C)cc(C(=O)COC(=O)c3ccc(O)cc3O)c2C)cc1 | inconclusive [activator, full curve, poor fit] |
| C/C(=N\Nc1cccc2cccnc12)c1ccc[nH]1 | inconclusive [activator, full curve] |
| COc1cccc(CNS(=O)(=O)c2c(C(=O)N3CCCC3)c(C)n(C)c2C)c1 | inactive |
| Cc1c(C(=O)Nc2ccccc2F)sc2nc3n(c(=O)c12)CCC3 | inconclusive [activator, partial curve, poor fit] |
| Cc1nn(Cc2ccccc2)c(C)c1/C=N/NC(=O)c1ccccc1O | inactive |
| CCCN(CCC)S(=O)(=O)c1ccc(C(=O)N2CCCc3ccccc32)cc1 | inactive |
| O=C(CSc1nnc2ccc3ccccc3n12)N1CCOCC1 | inconclusive [activator, partial curve, poor fit] |

| Compound | Potency |
| --- | --- |
| COc1cccc(C(=O)NNC(=S)NC2CCCCC2)c1 | inconclusive [activator, partial curve, poor fit] |
| O=C(N/N=C/C(Br)=C/c1ccccc1)c1cnccn1 | inconclusive [activator, single point] |
| O=C(NCC1COc2ccccc2O1)c1ccccc1 (centres undefined) | inconclusive [activator, partial curve, poor fit] |
| FC(F)(F)c1cccc(-c2nc(-c3ccncc3)no2)c1 | inactive |
| CC(C)Cn1c2ccccc2c2cc(C(=O)O)ccc21 | inactive |
| COc1ccc(CC(C)Nc2ccccc2F)cc1 (centres undefined) | inconclusive [activator, partial curve, poor fit] |
| CN(C)CCCNc1c2ccccc2nc2ccccc12 | inconclusive [activator, partial curve, poor fit] |
| COc1ccc2oc(C(=O)OCC(=O)N(C)CC(=O)Nc3ccc(F)cc3)c(C)c2c1 | inconclusive [activator, single point] |
| CN1CCC/C1=C/C=C1\SC(=S)NC1=O | inconclusive [activator, full curve, poor fit] |
| COc1ccc(N(CC(=O)Nc2cc(Cl)ccc2OC)S(=O)(=O)c2c(C)noc2C)cc1 | inconclusive [activator, single point] |
| COc1cc2cnc(-c3ccsc3)cc2cc1OC | inactive |
| CC(C)(C)OC(=O)N/N=C\c1ccc([N+](=O)[O-])s1 | inconclusive [activator, partial curve, poor fit] |
| COc1ccccc1/C=N/Nc1nncc2ccccc12 | inconclusive [activator, partial curve, poor fit] |
| Nc1nc(Nc2ccc(Cl)cc2Cl)nc(C(F)(F)F)n1 | inconclusive [activator, partial curve, poor fit] |
| Cc1cccc(C)c1-n1c(C)cc(/C=N\Nc2ccc([N+](=O)[O-])cn2)c1C | inconclusive [activator, single point] |
| O=C(c1ccccc1)c1ccc(OC(=O)N2CCCC2)cc1 | inconclusive [activator, partial curve] |
| Cc1ccc(S(=O)(=O)Nc2ccccc2C(=O)NCC2CCCO2)cc1 (centres undefined) | inactive |
| COc1cccc(-c2cc(C(=O)Nc3cccnc3)no2)c1 | inconclusive [activator, partial curve, poor fit] |
| CCC1CCCCN1S(=O)(=O)c1ccc(C(=O)Nc2nnc(-c3ccccc3Cl)o2)cc1 (centres undefined) | inactive |
| CC1(C)NC(=O)N(CC(O)CN2C(=O)NC(C)(C)C2=O)C1=O | inactive |
| O=C(NC12CC3CC(CC(C3)C1)C2)N1CCC(O)CC1 | inconclusive [activator, full curve, poor fit] |
| CC(=O)Nc1ccc(-c2nc3ccccc3c(=O)o2)cc1 | inactive |
